Our source for the binding signal values is paper PMC9911399, “Two distinct binding modes provide the RNA-binding protein RbFox with extraordinary sequence specificity”.

B1: ACGUAUA (DNA:RNA)
RNA: GGGAGACCGGAAUUCAGAUUGUCCACGUAUAUUAAAUCCCGUCGUAGCCACCA
DNA 1: CAATCTGAATTCCGGTCTCCC
DNA 2: TGGTGGCTACGACGGGATT
B2: AAAUGAA (DNA:RNA)
RNA: B1 RNA with C26A, G27A, A29G, U30A
DNA 1: CAATCTGAATTCCGGTCTCCC
DNA 2: TGGTGGCTACGACGGGATT
B3: UCGGAUU (DNA:RNA)
RNA: B1 RNA with A25U, U28G, A31U
DNA 1: CAATCTGAATTCCGGTCTCCC
DNA 2: TGGTGGCTACGACGGGATT
B4: CACAGAA (DNA:RNA)
RNA: B1 RNA with A25C, C26A, G27C, U28A, A29G, U30A
DNA 1: CAATCTGAATTCCGGTCTCCC
DNA 2: TGGTGGCTACGACGGGATT
B5: CUAUCUG (DNA:RNA)
RNA: B1 RNA with A25C, C26U, G27A, A29C, A31G
DNA 1: CAATCTGAATTCCGGTCTCCC
DNA 2: TGGTGGCTACGACGGGATT
B6: GAUGUGC (DNA:RNA)
RNA: GGGAGACCGGAAUUCAGAUUGUCCGAUGUGCUUAAAUCCCGUCGUAGCCACCA
DNA 1: CAATCTGAATTCCGGTCTCCC
DNA 2: TGGTGGCTACGACGGGATT
B7: AAUAAAG (DNA:RNA)
RNA: B1 RNA with C26A, G27U, U28A, U30A, A31G
DNA 1: CAATCTGAATTCCGGTCTCCC
DNA 2: TGGTGGCTACGACGGGATT
B8: UAGGAAA (DNA:RNA)
RNA: B1 RNA with A25U, C26A, U28G, U30A
DNA 1: CAATCTGAATTCCGGTCTCCC
DNA 2: TGGTGGCTACGACGGGATT
B9: GGAGUGA (DNA:RNA)
RNA: B6 RNA with A26G, U27A, C31A
DNA 1: CAATCTGAATTCCGGTCTCCC
DNA 2: TGGTGGCTACGACGGGATT
B10: AGGACCG (DNA:RNA)
RNA: B1 RNA with C26G, U28A, A29C, U30C, A31G
DNA 1: CAATCTGAATTCCGGTCTCCC
DNA 2: TGGTGGCTACGACGGGATT
B11: AGAAUCC (DNA:RNA)
RNA: B6 RNA with G25A, A26G, U27A, G28A, G30C
DNA 1: CAATCTGAATTCCGGTCTCCC
DNA 2: TGGTGGCTACGACGGGATT
B12: UGGACCA (DNA:RNA)
RNA: B1 RNA with A25U, C26G, U28A, A29C, U30C
DNA 1: CAATCTGAATTCCGGTCTCCC
DNA 2: TGGTGGCTACGACGGGATT
B13: GGGACAC (DNA:RNA)
RNA: B6 RNA with A26G, U27G, G28A, U29C, G30A
DNA 1: CAATCTGAATTCCGGTCTCCC
DNA 2: TGGTGGCTACGACGGGATT
B14: ACAAGCC (DNA:RNA)
RNA: B1 RNA with G27A, U28A, A29G, U30C, A31C
DNA 1: CAATCTGAATTCCGGTCTCCC
DNA 2: TGGTGGCTACGACGGGATT
B15: UCGCUUG (DNA:RNA)
RNA: B1 RNA with A25U, U28C, A29U, A31G
DNA 1: CAATCTGAATTCCGGTCTCCC
DNA 2: TGGTGGCTACGACGGGATT
B16: ACCUAUU (DNA:RNA)
RNA: B1 RNA with G27C, A31U
DNA 1: CAATCTGAATTCCGGTCTCCC
DNA 2: TGGTGGCTACGACGGGATT
B17: GAGAAUG (DNA:RNA)
RNA: B1 RNA with A25G, C26A, U28A, A31G
DNA 1: CAATCTGAATTCCGGTCTCCC
DNA 2: TGGTGGCTACGACGGGATT
B18: GAUUACG (DNA:RNA)
RNA: B6 RNA with G28U, U29A, G30C, C31G
DNA 1: CAATCTGAATTCCGGTCTCCC
DNA 2: TGGTGGCTACGACGGGATT
B19: UAGCCAA (DNA:RNA)
RNA: B1 RNA with A25U, C26A, U28C, A29C, U30A
DNA 1: CAATCTGAATTCCGGTCTCCC
DNA 2: TGGTGGCTACGACGGGATT
B20: AUCCUGA (DNA:RNA)
RNA: B1 RNA with C26U, G27C, U28C, A29U, U30G
DNA 1: CAATCTGAATTCCGGTCTCCC
DNA 2: TGGTGGCTACGACGGGATT
B21: UCUUCGC (DNA:RNA)
RNA: B6 RNA with G25U, A26C, G28U, U29C
DNA 1: CAATCTGAATTCCGGTCTCCC
DNA 2: TGGTGGCTACGACGGGATT
B22: GGAAUUC (DNA:RNA)
RNA: B6 RNA with A26G, U27A, G28A, G30U
DNA 1: CAATCTGAATTCCGGTCTCCC
DNA 2: TGGTGGCTACGACGGGATT
B23: GCUGAUU (DNA:RNA)
RNA: B1 RNA with A25G, G27U, U28G, A31U
DNA 1: CAATCTGAATTCCGGTCTCCC
DNA 2: TGGTGGCTACGACGGGATT
B24: ACGGGGG (DNA:RNA)
RNA: B1 RNA with U28G, A29G, U30G, A31G
DNA 1: CAATCTGAATTCCGGTCTCCC
DNA 2: TGGTGGCTACGACGGGATT
B25: GCAAUAA (DNA:RNA)
RNA: B1 RNA with A25G, G27A, U28A, A29U, U30A
DNA 1: CAATCTGAATTCCGGTCTCCC
DNA 2: TGGTGGCTACGACGGGATT
B26: CCAAAGU (DNA:RNA)
RNA: B1 RNA with A25C, G27A, U28A, U30G, A31U
DNA 1: CAATCTGAATTCCGGTCTCCC
DNA 2: TGGTGGCTACGACGGGATT
B27: GUGCCUU (DNA:RNA)
RNA: B1 RNA with A25G, C26U, U28C, A29C, A31U
DNA 1: CAATCTGAATTCCGGTCTCCC
DNA 2: TGGTGGCTACGACGGGATT
B28: UCAACAG (DNA:RNA)
RNA: B1 RNA with A25U, G27A, U28A, A29C, U30A, A31G
DNA 1: CAATCTGAATTCCGGTCTCCC
DNA 2: TGGTGGCTACGACGGGATT
B29: UUUUUCC (DNA:RNA)
RNA: B6 RNA with G25U, A26U, G28U, G30C
DNA 1: CAATCTGAATTCCGGTCTCCC
DNA 2: TGGTGGCTACGACGGGATT
B30: GCUGUGC (DNA:RNA)
RNA: B6 RNA with A26C
DNA 1: CAATCTGAATTCCGGTCTCCC
DNA 2: TGGTGGCTACGACGGGATT
B31: UGUGUAU (DNA:RNA)
RNA: B6 RNA with G25U, A26G, G30A, C31U
DNA 1: CAATCTGAATTCCGGTCTCCC
DNA 2: TGGTGGCTACGACGGGATT

Residue numbers refer to the chain shown, from its start. The list shows a part of the results.

In this assay the target is T1, RBFOX1 RRM (Homo sapiens, UniProt Q9NWB1 109-208).
T1 sequence: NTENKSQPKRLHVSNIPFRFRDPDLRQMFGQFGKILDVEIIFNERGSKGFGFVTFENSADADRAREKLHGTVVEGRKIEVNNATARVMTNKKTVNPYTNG
The experiment in a line: EMSA; HiTS-Eq, 1 nM pool, 10 min; buffer printed only for the single-RNA assays: 10 mM Tris pH 7.5, 150 mM NaCl, 3.4 mM EDTA, 0.001% NP-40, 30 C. The conditions noted are these: tags: His6 N-terminal (pET28a); label: 5' 32P. An outline of the steps:
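Purified wild-type or mutant RbFox RRM at increasing concentrations was equilibrated with 1 nM of 5′-radiolabelled RNA carrying 7 randomized nucleotides for 10 min in 50 µL. Unbound RNA was separated by 8% native PAGE and sequenced. Relative association constants came from read-count changes of each RNA species compared with the control reaction, normalised to the cognate motif.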
(Mobility shift assays separate free from complexed probe on a gel.)
In the case of B1, the binding signal is 0.0028 KA relative to UGCAUGU.

Turning to B2, the binding signal is 0.00432 KA relative to UGCAUGU.

Take B3: the binding signal was 0.00345 KA relative to UGCAUGU.

For B4, the binding signal is 0.00249 KA relative to UGCAUGU.

As for B5, the binding signal was 0.00983 KA relative to UGCAUGU.

On to B6, for which the binding signal was 0.0168 KA relative to UGCAUGU.

In the case of B7, the binding signal was 0.00348 KA relative to UGCAUGU.

Turning to B8, the binding signal is 0.00352 KA relative to UGCAUGU.

As for B9, the binding signal is 0.0106 KA relative to UGCAUGU.

Consider B10, for which the binding signal was 0.017 KA relative to UGCAUGU.

As to B11, the binding signal was 0.00784 KA relative to UGCAUGU.

In the case of B12, the binding signal is 0.0148 KA relative to UGCAUGU.

On to B13, for which the binding signal is 0.0278 KA relative to UGCAUGU.

Take B14: the binding signal is 0.000601 KA relative to UGCAUGU.

In the case of B15, the binding signal was 0.0368 KA relative to UGCAUGU.

Consider B16, for which the binding signal is 0.00145 KA relative to UGCAUGU.

For the molecule B17, the binding signal is 0.0321 KA relative to UGCAUGU.

As for B18, the binding signal was 0.0106 KA relative to UGCAUGU.

Regarding B19, the binding signal is 0.00414 KA relative to UGCAUGU.

Turning to B20, the binding signal was 0.00629 KA relative to UGCAUGU.

B21: the binding signal is 0.0142 KA relative to UGCAUGU.

As for B22, the binding signal was 0.018 KA relative to UGCAUGU.

Consider B23, for which the binding signal is 0.0205 KA relative to UGCAUGU.

Consider B24, for which the binding signal is 0.0156 KA relative to UGCAUGU.

As for B25, the binding signal is 0.00157 KA relative to UGCAUGU.

In the case of B26, the binding signal is 0.00134 KA relative to UGCAUGU.

Consider B27, for which the binding signal is 0.0138 KA relative to UGCAUGU.

Consider B28, for which the binding signal was 0.00335 KA relative to UGCAUGU.

In the case of B29, the binding signal was 0.0127 KA relative to UGCAUGU.

Consider B30, for which the binding signal is 0.0218 KA relative to UGCAUGU.

Regarding B31, the binding signal is 0.0191 KA relative to UGCAUGU.
